Measurements published in US20170327588A1 (AstraZeneca / MedImmune, published 2017).

Columns and labels:
rhGITR (hIgG1 Fc) = target: T1, rhGITR (hIgG1 Fc) (human, UniProt Q9Y5U5 26-161); test: ELISA, receptor coated at 5 ug/mL, FP6 detected with anti-human IgG4-HRP
T1 construct: Bought from R&D Systems; also called recombinant human GITR Fc chimera; not shown: human IgG1 Fc
T1 sequence (looked up): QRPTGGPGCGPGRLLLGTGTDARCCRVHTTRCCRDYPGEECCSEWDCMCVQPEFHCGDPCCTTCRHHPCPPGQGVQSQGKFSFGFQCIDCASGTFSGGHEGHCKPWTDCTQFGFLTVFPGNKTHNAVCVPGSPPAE

rhOX40 (hIgG1 Fc) = target: T2, rhOX40 (hIgG1 Fc) (human, UniProt P43489 29-216); test: as above
T2 construct: Bought from R&D Systems; also called recombinant human OX40 Fc chimera; not shown: human IgG1 Fc
T2 sequence (looked up): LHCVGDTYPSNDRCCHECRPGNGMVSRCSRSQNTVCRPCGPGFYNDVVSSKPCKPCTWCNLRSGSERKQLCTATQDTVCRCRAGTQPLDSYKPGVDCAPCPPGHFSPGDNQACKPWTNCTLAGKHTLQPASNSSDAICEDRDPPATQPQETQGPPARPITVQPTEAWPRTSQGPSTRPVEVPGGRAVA

rhTRAIL = target: T3, rhTRAIL (human, UniProt P50591 114-281, limits assumed); test: ELISA, rhTRAIL coated at 5 ug/mL, FP6 detected with anti-human IgG4-HRP
Sequence of rhTRAIL (P50591 114-281 limits assumed): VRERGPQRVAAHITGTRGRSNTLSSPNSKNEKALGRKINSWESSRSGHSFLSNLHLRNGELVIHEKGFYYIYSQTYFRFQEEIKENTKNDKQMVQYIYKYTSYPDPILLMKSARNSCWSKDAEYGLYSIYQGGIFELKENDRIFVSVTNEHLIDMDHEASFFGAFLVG
T3 construct: It is not clear whether a TRAIL receptor was meant; also called recombinant human TRAIL (no Fc component)

human CD40 on cells [1] = target: T4, human CD40 on cells (human, UniProt P25942 21-277); test: cell-based or functional assay
human CD40 on cells [2] = target: T4, human CD40 on cells; test: cell-based or functional assay; remark: listed apart in the source
T4 sequence (P25942 21-277 limits assumed): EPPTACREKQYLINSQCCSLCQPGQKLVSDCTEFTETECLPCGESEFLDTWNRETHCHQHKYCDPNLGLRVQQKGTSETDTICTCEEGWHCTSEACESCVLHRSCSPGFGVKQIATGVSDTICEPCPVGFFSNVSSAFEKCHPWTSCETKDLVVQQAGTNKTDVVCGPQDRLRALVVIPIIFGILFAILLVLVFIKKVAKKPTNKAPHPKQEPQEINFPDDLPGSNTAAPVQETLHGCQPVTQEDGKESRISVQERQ

human CD40 on cells [3] = target: T4, human CD40 on cells; test: cell-based or functional assay; remark: listed apart in the source
human CD40 on cells [4] = target: T4, human CD40 on cells; test: cell-based or functional assay; remark: listed apart in the source

B1: scCD40L-IgG4P-FP6 (MEDI5083) (Fc fusion)
chain: NPQIAAHVISEASSKTTSVLQWAEKGYYTMSNNLVTLENGKQLTVKRQGLYYIYAQVTFCSNREASSQAPFIASLWLKSPGRFERILLRAANTHSSAKPCGQQSIHLGGVFELQPGASVFVNVTDPSQVSHGTGFTSFGLLKLGGGGSGGGSQIAAHVISEASSKTTSVLQWAEKGYYTMSNNLVTLENGKQLTVKRQGLYYIYAQVTFCSNREASSQAPFIASLWLKSPGRFERILLRAANTHSSAKPCGQQSIHLGGVFELQPGASVFVNVTDPSQVSHGTGFTSFGLLKLGGGGSGGGSQIAAHVISEASSKTTSVLQWAEKGYYTMSNNLVTLENGKQLTVKRQGLYYIYAQVTFCSNREASSQAPFIASLWLKSPGRFERILLRAANTHSSAKPCGQQSIHLGGVFELQPGASVFVNVTDPSQVSHGTGFTSFGLLKLGGGGSGGGGSGGGGS[human IgG4 Fc with S228P (EU numbers) not given here]
notes: also called FP6 C194W; FP6 CD40L fusion protein
- binding result (rhGITR (hIgG1 Fc)): no binding (tested: 20 nM)
- binding result (rhOX40 (hIgG1 Fc)): no binding (tested: 20 nM)
- binding result (rhTRAIL): no binding (tested: 20 nM)
- IC50, HEK293 human CD40 NFkB Luciferase reporter assay (stability samples) (human CD40 on cells [1]): 0.1 to 0.2 nM
- EC50 (nM), Ramos-Blue NFkB/AP-1 reporter B cells (human CD40 on cells [2]): 0.0715 nM
- EC50 (nM), HuCD40 293 HEK NFkB c3 luciferase reporter cells (human CD40 on cells [3]): 0.21 nM
- EC50 (nM), CD80 surface marker on human MoDC (FACS) (human CD40 on cells [4]): 0.813 nM
- EC50 (nM), CD83 surface marker on human MoDC (FACS) (human CD40 on cells [4]): 0.234 nM
- EC50 (nM), CD86 surface marker on human MoDC (FACS) (human CD40 on cells [4]): 0.447 nM
- EC50 (nM), HLA-ABC surface marker on human MoDC (FACS) (human CD40 on cells [4]): 0.988 nM
- EC50 (nM), HLA-DR surface marker on human MoDC (FACS) (human CD40 on cells [4]): 0.473 nM
